This is one part of the list.
Experiments:
Experiment in all cases: glycan array binding signal (z-score within array); higher = stronger binding
Settings in all cases: glycan notation: IUPAC condensed, linker removed
[1] = biological target: Gal(b1-4)GlcNAc(b1-3)Gal(b1-4)GlcNAc(b1-3)Gal(b1-4)GlcNAc(b1-3)Gal(b1-4)GlcNAc(b1-2)Man(a1-3)[Gal(b1-4)GlcNAc(b1-3)Gal(b1-4)GlcNAc(b1-3)Gal(b1-4)GlcNAc(b1-3)Gal(b1-4)GlcNAc(b1-2)Man(a1-6)]Man(b1-4)GlcNAc(b1-4)GlcNAc
Method in brief: (§1)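 From the Consortium for Functional Glycomics database, 3228 arrays were curated, keeping only those whose protein sequence was available. Binding is given as a within-array Z-score averaged across arrays sharing a protein sequence and across linkers. Negative Z-scores can be read as non-binding.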

[2] = biological target: Gal(b1-4)GlcNAc(b1-3)Gal(b1-4)GlcNAc(b1-3)Gal(b1-4)GlcNAc(b1-3)Gal(b1-4)GlcNAc(b1-2)Man(a1-3)[Gal(b1-4)GlcNAc(b1-3)Gal(b1-4)GlcNAc(b1-3)Gal(b1-4)GlcNAc(b1-3)Gal(b1-4)GlcNAc(b1-2)Man(a1-6)]Man(b1-4)GlcNAc(b1-4)[Fuc(a1-6)]GlcNAc
Method in brief: as §1

[3] = biological target: Gal(b1-4)GlcNAc(b1-3)Gal(b1-4)GlcNAc(b1-3)Gal(b1-4)GlcNAc(b1-3)Gal(b1-4)GlcNAc(b1-2)[Gal(b1-4)GlcNAc(b1-3)Gal(b1-4)GlcNAc(b1-3)Gal(b1-4)GlcNAc(b1-3)Gal(b1-4)GlcNAc(b1-6)]Man(a1-6)[Gal(b1-4)GlcNAc(b1-3)Gal(b1-4)GlcNAc(b1-3)Gal(b1-4)GlcNAc(b1-3)Gal(b1-4)GlcNAc(b1-2)Man(a1-3)]Man(b1-4)GlcNAc(b1-4)[Fuc(a1-6)]GlcNAc
Method in brief: as §1

[4] = biological target: Gal(b1-4)GlcNAc(b1-3)Gal(b1-4)GlcNAc(b1-3)Gal(b1-4)GlcNAc(b1-3)Gal(b1-4)GlcNAc(b1-3)Gal(b1-4)GlcNAc(b1-2)Man(a1-3)[Gal(b1-4)GlcNAc(b1-3)Gal(b1-4)GlcNAc(b1-3)Gal(b1-4)GlcNAc(b1-3)Gal(b1-4)GlcNAc(b1-3)Gal(b1-4)GlcNAc(b1-2)Man(a1-6)]Man(b1-4)GlcNAc(b1-4)GlcNAc
Method in brief: as §1

[5] = biological target: Gal(b1-4)GlcNAc(b1-3)Gal(b1-4)GlcNAc(b1-3)Gal(b1-4)GlcNAc(b1-3)Gal(b1-4)GlcNAc(b1-3)Gal(b1-4)GlcNAc(b1-2)Man(a1-3)[Gal(b1-4)GlcNAc(b1-3)Gal(b1-4)GlcNAc(b1-3)Gal(b1-4)GlcNAc(b1-3)Gal(b1-4)GlcNAc(b1-3)Gal(b1-4)GlcNAc(b1-2)Man(a1-6)]Man(b1-4)GlcNAc(b1-4)[Fuc(a1-6)]GlcNAc
Method in brief: as §1

[6] = biological target: Gal(b1-4)GlcNAc(b1-3)Gal(b1-4)GlcNAc(b1-3)Gal(b1-4)GlcNAc(b1-3)Gal(b1-4)GlcNAc(b1-3)Gal(b1-4)GlcNAc(b1-2)[Gal(b1-4)GlcNAc(b1-3)Gal(b1-4)GlcNAc(b1-3)Gal(b1-4)GlcNAc(b1-3)Gal(b1-4)GlcNAc(b1-3)Gal(b1-4)GlcNAc(b1-6)]Man(a1-6)[Gal(b1-4)GlcNAc(b1-3)Gal(b1-4)GlcNAc(b1-3)Gal(b1-4)GlcNAc(b1-3)Gal(b1-4)GlcNAc(b1-3)Gal(b1-4)GlcNAc(b1-2)Man(a1-3)]Man(b1-4)GlcNAc(b1-4)[Fuc(a1-6)]GlcNAc
Method in brief: as §1

[7] = biological target: Gal(b1-4)GlcNAc(b1-3)Gal(b1-4)GlcNAc(b1-3)Gal(b1-4)GlcNAc(b1-3)Gal(b1-4)GlcNAc(b1-3)Gal(b1-4)GlcNAc(b1-3)Gal(b1-4)GlcNAc(b1-2)Man(a1-3)[Gal(b1-4)GlcNAc(b1-3)Gal(b1-4)GlcNAc(b1-3)Gal(b1-4)GlcNAc(b1-3)Gal(b1-4)GlcNAc(b1-3)Gal(b1-4)GlcNAc(b1-3)Gal(b1-4)GlcNAc(b1-2)Man(a1-6)]Man(b1-4)GlcNAc(b1-4)GlcNAc
Method in brief: as §1

[8] = biological target: Gal(b1-4)GlcNAc(b1-3)Gal(b1-4)GlcNAc(b1-3)GalNAc
Method in brief: as §1

[9] = biological target: Gal(b1-4)GlcNAc(b1-3)Gal(b1-4)GlcNAc(b1-3)[Gal(b1-4)GlcNAc(b1-3)Gal(b1-4)GlcNAc(b1-6)]GalNAc
Method in brief: as §1

[10] = biological target: Gal(b1-4)GlcNAc(b1-3)Gal(b1-4)GlcNAc(b1-6)[Gal(b1-3)]GalNAc
Method in brief: as §1

[11] = biological target: Gal(b1-4)GlcNAc(b1-3)Gal(b1-4)[Fuc(a1-3)]GlcNAc(b1-3)Gal(b1-4)[Fuc(a1-3)]GlcNAc
Method in brief: as §1

[12] = biological target: Gal(b1-4)GlcNAc(b1-3)GalNAc
Method in brief: as §1

[13] = biological target: Gal(b1-4)GlcNAc(b1-3)[Fuc(a1-3)GlcNAc(b1-6)]Gal(b1-4)Glc
Method in brief: as §1

[14] = biological target: Gal(b1-4)GlcNAc(b1-3)[Gal(b1-4)GlcNAc(b1-6)]Gal(b1-4)GlcNAc
Method in brief: as §1

[15] = biological target: Gal(b1-4)GlcNAc(b1-3)[GlcNAc(b1-6)]Gal(b1-4)GlcNAc
Method in brief: as §1

[16] = biological target: Gal(b1-4)GlcNAc(b1-6)Gal(b1-4)GlcNAc
Method in brief: as §1

[17] = biological target: Gal(b1-4)GlcNAc(b1-6)GalNAc
Method in brief: as §1

[18] = biological target: Gal(b1-4)GlcNAc(b1-6)[Gal(b1-3)]GalNAc
Method in brief: as §1

[19] = biological target: Gal(b1-4)GlcNAc(b1-6)[Gal(b1-4)GlcNAc(b1-3)]GalNAc
Method in brief: as §1

Gal(b1-4)GlcNAc6P = biological target: Gal(b1-4)GlcNAc6P
Method in brief: as §1

Gal(b1-6)Gal = biological target: Gal(b1-6)Gal
Method in brief: as §1

Gal3S(b1-3)GalNAc = biological target: Gal3S(b1-3)GalNAc
Method in brief: as §1

Gal3S(b1-3)GlcNAc = biological target: Gal3S(b1-3)GlcNAc
Method in brief: as §1

[20] = biological target: Gal3S(b1-3)[Fuc(a1-4)]GlcNAc
Method in brief: as §1

Gal3S(b1-4)Glc = biological target: Gal3S(b1-4)Glc
Method in brief: as §1

Gal3S(b1-4)Glc6S = biological target: Gal3S(b1-4)Glc6S
Method in brief: as §1

Gal3S(b1-4)GlcNAc = biological target: Gal3S(b1-4)GlcNAc
Method in brief: as §1

[21] = biological target: Gal3S(b1-4)[Fuc(a1-3)]Glc6S
Method in brief: as §1

[22] = biological target: Gal3S(b1-4)[Fuc(a1-3)]GlcNAc
Method in brief: as §1

[23] = biological target: Gal3S(b1-4)[Fuc(a1-3)]GlcNAc6S
Method in brief: as §1

Gal3S4S(b1-4)GlcNAc = biological target: Gal3S4S(b1-4)GlcNAc
Method in brief: as §1

Gal3S6S(b1-4)GlcNAc = biological target: Gal3S6S(b1-4)GlcNAc
Method in brief: as §1

Gal3S6S(b1-4)GlcNAc6S = biological target: Gal3S6S(b1-4)GlcNAc6S
Method in brief: as §1

Gal4S(b1-4)GlcNAc = biological target: Gal4S(b1-4)GlcNAc
Method in brief: as §1

Gal4S6S(b1-4)GlcNAc = biological target: Gal4S6S(b1-4)GlcNAc
Method in brief: as §1

Gal6P(b1-4)GlcNAc = biological target: Gal6P(b1-4)GlcNAc
Method in brief: as §1

Gal6S(b1-3)GlcNAc = biological target: Gal6S(b1-3)GlcNAc
Method in brief: as §1

Gal6S(b1-3)GlcNAc6S = biological target: Gal6S(b1-3)GlcNAc6S
Method in brief: as §1

B1: AT1G15820(2) (Arabidopsis thaliana), Q9LMQ2 (protein)
chain: MAMAVSGAVLSGLGSSFLTGGKRGATALASGVGTGAQRVGRKTLIVAAAAAQPKKSWIPAVKGGGNFLDPEWLDGSLPGDFGFDPLGLGKDPAFLKWYREAELIHGRWAMAAVLGIFVGQAWSGVAWFEAGAQPDAIAPFSFGSLLGTQLLLMGWVESKRWVDFFNPDSQSVEWATPWSKTAENFANYTGDQGYPGGRFFDPLGLAGKNRDGVYEPDFEKLERLKLAEIKHSRLAMVAMLIFYFEAGQGKTPLGALGL
[1]
  glycan array binding signal (z-score): 0.045
[2]
  glycan array binding signal (z-score): 0.197
[3]
  glycan array binding signal (z-score): 0.178
[4]
  glycan array binding signal (z-score): 0.327
[5]
  glycan array binding signal (z-score): -0.034
[6]
  glycan array binding signal (z-score): 0.166
[7]
  glycan array binding signal (z-score): -0.296
[8]
  glycan array binding signal (z-score): 0.427
[9]
  glycan array binding signal (z-score): 0.337
[10]
  glycan array binding signal (z-score): -0.422
[11]
  glycan array binding signal (z-score): -0.336
[12]
  glycan array binding signal (z-score): -0.445
[13]
  glycan array binding signal (z-score): -0.313
[14]
  glycan array binding signal (z-score): -0.371
[15]
  glycan array binding signal (z-score): -0.237
[16]
  glycan array binding signal (z-score): -0.457
[17]
  glycan array binding signal (z-score): 0.696
[18]
  glycan array binding signal (z-score): -0.285
[19]
  glycan array binding signal (z-score): 0.172
Gal(b1-4)GlcNAc6P
  glycan array binding signal (z-score): -0.327
Gal(b1-6)Gal
  glycan array binding signal (z-score): 0.325
Gal3S(b1-3)GalNAc
  glycan array binding signal (z-score): 0.527
Gal3S(b1-3)GlcNAc
  glycan array binding signal (z-score): 0.833
[20]
  glycan array binding signal (z-score): -0.253
Gal3S(b1-4)Glc
  glycan array binding signal (z-score): 0.944
Gal3S(b1-4)Glc6S
  glycan array binding signal (z-score): 0.421
Gal3S(b1-4)GlcNAc
  glycan array binding signal (z-score): -0.278
[21]
  glycan array binding signal (z-score): 1.96
[22]
  glycan array binding signal (z-score): 0.95
[23]
  glycan array binding signal (z-score): 0.588
Gal3S4S(b1-4)GlcNAc
  glycan array binding signal (z-score): -0.501
Gal3S6S(b1-4)GlcNAc
  glycan array binding signal (z-score): -0.059
Gal3S6S(b1-4)GlcNAc6S
  glycan array binding signal (z-score): 1.14
Gal4S(b1-4)GlcNAc
  glycan array binding signal (z-score): -0.105
Gal4S6S(b1-4)GlcNAc
  glycan array binding signal (z-score): -0.06
Gal6P(b1-4)GlcNAc
  glycan array binding signal (z-score): -0.581
Gal6S(b1-3)GlcNAc
  glycan array binding signal (z-score): -0.225
Gal6S(b1-3)GlcNAc6S
  glycan array binding signal (z-score): 0.062

— the supplement of paper PMC8728848
